Experimental data reported in ChEMBL document CHEMBL4888484, “Replenishing the malaria drug discovery pipeline: Screening and hit evaluation of the MMV Hit Generation Library 1 (HGL1) against asexual blood stage Plasmodium falciparum ,using a nano luciferase reporter read-out” (2022).
The campaign covered roughly 4,800 compounds. About 420 (8.8%) showed an effect of 50% or more. This is one part of the list.

System: Plasmodium falciparum
Assay: Confirmatory screen in NF54 nanoGlo assay, in single point, at 2uM, 72h
Assay type: functional, Erythrocyte
Conditions: timepoint 72 hour

Row | Compound | % Inhibition [%]
1 | Cc1cc(NS(=O)(=O)c2ccc(Br)cc2)ccc1-c1ccc(C(=O)O)o1 | -26
2 | O=C(NC(C1CC1)C1CC1)c1ccsc1 | -4
3 | C[C@@H](CN1CCCCC1)NC(=O)Nc1nc(C(F)(F)F)cs1 | -13
4 | O=C(CNc1ccccc1Nc1ccc(F)cc1F)N1CCNC1=O | 4
5 | O=C(Nc1ccc2c(c1)C(=O)N1CCC[C@H]1C(O)=N2)c1c(F)cccc1F | -13
6 | Cc1ccc(C)n1-c1ccccc1CNC(=O)c1ccc(C(F)(F)F)cc1 | -8
7 | CC(=O)N(C(C)=O)c1c(-c2ccccc2)nnn1-c1ccccc1 | 0
8 | CCOc1c(Br)cc(Cl)cc1NCC(=O)NC(=O)NC | -4
9 | CC(C)C(C(=O)O)N1Cc2c(cc(O)c3c2OC2(C3)C(C)CCC3C(C)(C)C(O)CCC32C)C1=O (configuration not stated) | 1
10 | COC(=O)C1(NC(=O)c2scnc2C)CCCCC1 | -7
11 | O=C(Nc1[nH]c(=O)ncc1F)c1coc(-c2ccccc2)n1 | 80
12 | CC(C)(C)NC(=O)CNc1nnc(C2CC2)s1 | -11
13 | CC1CCCN(C2(N3CCCC(C)C3)C(=O)Nc3ccc(F)cc32)C1 (configuration not stated) | 19
14 | Cc1ccn([C@@H](C)c2nnc(Nc3ccn(Cc4c(Cl)cccc4Cl)n3)s2)n1 | 7
15 | Cn1c(C(C)(C)C)nc2cc(NC3CCC4(CC3)OCCO4)ccc21 | -8
16 | CCC(C)NCC(O)Cn1c(-c2ccccc2)c(-c2ccccc2)c2cc(C)ccc21 (configuration not stated) | 92
17 | O=C(c1nnn(-c2ccccc2Cl)c1-c1cccnc1)N1CCC(Cc2ccccc2)CC1 | -7
18 | COc1ccc([C@H]2[C@H](C(=O)NCc3ccc(C)o3)CCC(=O)N2C)cc1 | -15
19 | O=C(NCc1cccc(C(F)(F)F)c1)c1csc(C(=O)NC2CCCC2)n1 | -14
20 | CC(=O)N[C@@H]1CN(Cc2nccn2Cc2ccccc2)C[C@H]1c1nccn1C | 15
21 | Cn1ncn(CC(=O)c2cccc(Cl)c2Cl)c1=O | -15
22 | O=C(CCc1ccccc1)N[C@@H](c1ccccc1)c1ccc2c3c(cccc13)CC2 | -12
23 | Cc1nc(NC(=O)N2CCOCC2CC(O)c2cccs2)sc1C (configuration not stated) | 2
24 | O=c1c2ccccc2ncn1S(=O)(=O)c1ccc(Cl)cc1 | -1
25 | COc1ccccc1CN(C(=O)c1ccc(C)cc1)c1ccc(CC(=O)NCCN2CCCCC2)cc1 | 39
26 | O=C1O[C@H](N2CCc3ccccc3C2)c2ccccc21 | 1

Row | Compound | % Inhibition [%]
27 | O=C(NC1CCCCC1)c1nn(-c2ccccc2)c(=O)c2ccccc12 | -4
28 | Cc1cccc(N2CCN(S(=O)(=O)c3cc(-c4nnc(C)o4)co3)CC2)c1 | -5
29 | Cc1nn(C)cc1-c1cc(C(F)(F)F)nc(N2CCOCC2)n1 | -5
30 | Nc1ccc2c(N3CCC(C4OCCO4)CC3)ncnc2n1 | -2
31 | COc1ccc2c(c1)OC13CCN(C)CC1C2C(C(=O)c1ccccc1OC)C(=O)N3 (configuration not stated) | 57
32 | COc1cc(C(=O)Nc2nnc(-c3ccc(C)s3)[nH]2)on1 | -4
33 | CC(C)(C)C1CCC(Nc2cccc(Cl)c2)(c2nnnn2[C@H](/C=C\c2ccc(Cl)cc2Cl)C(C)(C)C)CC1 (some centres not stated) | -13
34 | Cc1c(N2C(=O)c3ccc(Cl)cc3C2=O)c(=O)n(-c2ccccc2)n1C | -8
35 | COCCNC(=O)c1ccc(-n2nc(-c3nnc(C)o3)c(C)c2-c2ccc(OC)cc2)cc1 | 46
36 | Cn1ncc(NC(=O)Cn2nc(C(F)F)c(Cl)c2C2CC2)c1C(=O)N1CCCCC1 | -1
37 | CCN1CCN(c2cccc(NC(=O)c3ccc4[nH]c5ccccc5c(=O)c4c3)c2)CC1 | 93
38 | N#Cc1ccc(NCc2nccc(N)n2)nc1 | 1
39 | Cc1ccnc(N2CCN(S(=O)(=O)Cc3ccon3)CC2)c1 | 4
40 | O=C1c2ccccc2C(c2ccc(NC(=O)c3cccc4ccccc34)cc2)(c2ccc(NC(=O)c3cccc4ccccc34)cc2)c2ccccc21 | 83
41 | COc1ccc(NC(=O)CCC(=O)c2ccc3c(c2)OCCCO3)cc1 | -11
42 | C[C@@H](CNC(=O)c1ccncc1F)c1nc2ccccc2s1 | -1
43 | O=S(=O)(Cc1ccccc1)N1CCC(OCCOc2ccc(F)cc2)CC1 | -2
44 | N#CC(c1nc2ccccc2s1)c1nc2ccccc2s1 | 14
45 | CCCNC(=O)c1cn2ccnc(-c3ccc(C)cc3)c2n1 | -4
46 | O=C(Nc1ccc2c(c1)CNCC2)C1CC1c1ccc(F)c(F)c1 (configuration not stated) | 4
47 | CC(C)N(CCS(C)(=O)=O)C(=O)NCc1ccco1 | 5
48 | COCc1cc2nn(CC(=O)Nc3ccc(F)cc3C)c(=O)n2c(-c2ccccc2)n1 | -15
49 | O=C(NCc1cccc(F)c1)[C@H]1CCCN(c2nc3ccccc3n(Cc3ccccc3)c2=O)C1 | 5
50 | Cn1nc(C2CC2)nc1COc1cc(C(F)F)nc2ccc(Cl)cc12 | -4
51 | COc1ccc(-c2noc([C@H](C)NC(=O)N3CCNC(=O)C3)n2)cc1OC | -1
52 | Cc1nnc(NS(=O)(=O)c2c(C)sc3ccccc23)s1 | 5

Row | Compound | % Inhibition [%]
53 | Nc1c(Cl)cc(Cl)c(N)c1Cl | -11
54 | CCN1c2cc(C(=O)NCc3ccccc3)ccc2C(=O)N2CCCC[C@H]21 | 1
55 | CC(C)(C)c1cc(N)c2ccccc2n1 | -8
56 | Cc1cc(C)n(S(=O)(=O)c2ccc3c(c2)OCCO3)n1 | -3
57 | Cc1ccc(NC(=O)c2ccc3c(-c4ccccc4)onc3c2)cc1C | -17
58 | Fc1cccc(F)c1-n1c(COc2ccc(Cl)cc2)csc1=S | -7
59 | CC(CO)(CO)NC(=O)c1ccc(Br)cc1 | 2
60 | C[C@H](C(=O)NCCc1ccccc1)C1CCOCC1 | -9
61 | COC(=O)[C@@H]1[C@@H](NC(=O)C2CCCC2)CCN1C(C)=O | -2
62 | Cc1ccc(Cn2c(=O)c(N3CCC[C@H](C(=O)NCCc4ccco4)C3)nc3ccccc32)cc1 | -2
63 | O=C(COc1ccccc1)N1CC[C@H](c2nc(C3CCOCC3)no2)C1 | -3
64 | Cc1ccc(C(=O)Nc2ccc(N3CCN(CCC#N)CC3)cc2C(=O)O)cc1 | -12
65 | c1cncc(CN2CCN(C3CCCCCC3)CC2)c1 | 3
66 | NC(=O)C1CCCCCC1NC(=O)c1nccnc1N (configuration not stated) | -2
67 | Cn1nc(C(=O)NCc2cccs2)cc1C(=O)NCc1cccs1 | -9
68 | O=C(Nc1ccn(-c2ccccc2)n1)N1CC2CCC(O)CC2C1 (configuration not stated) | -13
69 | CC(C)[C@@H]1CN(C(=O)c2ccncc2)c2ccccc2N1 | -7
70 | COc1ccc(NC(=O)c2cc3c(C)nn(-c4ccccc4)c3s2)cn1 | 7
71 | C=CCN(CC=C)S(=O)(=O)c1ccc(S(=O)(=O)NC)cc1 | -8
72 | c1ccc(C(c2ccccc2)N2CCN(c3nn4cnnc4c4ccccc34)CC2)cc1 | 65
73 | CCN(CC)S(=O)(=O)c1ccc2c(c1)CCCN2C(=O)c1ccc2ccccc2c1 | 1
74 | O=C(NCc1ccc(F)c(Cl)c1)c1csc(C(=O)NC2CCCC2)n1 | -4
75 | C[C@@H](CC#N)NC(=O)Nc1cc(-c2ccccc2)ns1 | 11
76 | O=C(NCCCn1ncc2c(Cl)cccc21)C1CCC1 | -1
77 | O=C1OCc2cc(NC(=O)[C@@H]3COc4ccccc4O3)ccc21 | 5
78 | Cc1ccc(NS(=O)(=O)c2ccc(NC(=O)CN(c3cc(Cl)ccc3C)S(C)(=O)=O)cc2)cc1C | -6

Row | Compound | % Inhibition [%]
79 | CN1CCN(C(=O)CNC(=O)c2cccc(Cl)c2)CC1 | -2
80 | Cc1nn(Cc2nnn(C)n2)c(C)c1Br | -10
81 | COc1ccc(-c2nccn3cc(C(=O)NCCN(C)C4CCCCC4)nc23)cc1 | 6
82 | O=C1[C@H]2C(Cc3c[nH]c4ccccc34)N[C@@]3(C(=O)Nc4ccc(F)cc43)[C@H]2C(=O)N1CC1CCCO1 (some centres not stated) | -14
83 | CC(C)(C)c1cc(N)nc(C(C)(C)C)n1 | -16
84 | Cn1cncc1CC(=O)Nc1ccnc(NC(=O)OC(C)(C)C)c1 | 96
85 | Cn1cnn(CC(=O)N2CCc3ccccc3C2)c1=O | 0
86 | O[C@H]1Cc2ccccc2[C@H]1Nc1nc(-c2ccccn2)nc2c1CCNC2 | 13
87 | CC(C)C(NC[C@H]1CCCN1S(C)(=O)=O)c1cc2ccccc2o1 (some centres not stated) | -7
88 | O=C(CCC(=O)Nc1cccnc1)NCc1ccc2c(c1)OCO2 | -2
89 | CS(=O)(=O)CC1(CNC(=O)c2ccc(Br)cc2)CC1 | 6
90 | C[C@@H](CNc1nc(-c2ccccc2)nc2nc(-c3ccc(Cl)cc3)oc12)N1CCCCC1 | 60
91 | COc1cc(C(=O)NC2CCCCC2)cc2occc12 | -8
92 | COc1ccc(NS(=O)(=O)c2ccc(NC(=O)CN(c3ccc(F)cc3)S(C)(=O)=O)cc2)cc1 | 5
93 | FC(F)(F)C1CCCC(NCc2c[nH]nc2-c2cccnc2)C1 (configuration not stated) | -2
94 | Cc1c(C)n(C[C@H](O)Cn2c(C(F)(F)F)nc3ccccc32)c2c(Cl)cccc12 | -6
95 | COc1ccc(Nc2nc(C(=O)Nc3ncc(C)s3)cs2)cc1OC | 17
96 | CNC(=O)c1nc(C(=O)NCc2ccco2)cs1 | -13
97 | CC(C)C(=O)N1CC[C@H](CC(=O)NCc2ccccc2)C1 | -4
98 | O=C(O)c1cccc2c(-c3cc(-c4ccccc4)n(-c4ccccc4)n3)ccc(C(=O)O)c12 | -4
99 | COc1cc(CNCc2cccs2)ccc1OCc1ccccc1C | -7
100 | O=C(N[C@H]1CCOC1=O)OCc1ccccc1 | -7
101 | CN1CCN(CC2(O)CCN(S(=O)(=O)c3ccc(Cl)cc3)CC2)CC1 | -11
102 | O=C(Cc1c[nH]c2ccccc12)NC1(C(=O)NC2CCCC2)CCCCC1 | 0
